Laboratory results: publication PMC6511868
No constants are given. Whether binding was seen depends on the method and setting. Binding seen in cells or lysates may run through a third protein. Some binding calls cover weakened binding; strength is not graded here. For some of these results: Where a sequence is shown, tags or fusion partners need not be part of it. Blank lines part the entries; values can stand above or below the binder they belong to.

By UniProt entry, the sequences of proteins in these tests, tags left out.
UniProt Q03195: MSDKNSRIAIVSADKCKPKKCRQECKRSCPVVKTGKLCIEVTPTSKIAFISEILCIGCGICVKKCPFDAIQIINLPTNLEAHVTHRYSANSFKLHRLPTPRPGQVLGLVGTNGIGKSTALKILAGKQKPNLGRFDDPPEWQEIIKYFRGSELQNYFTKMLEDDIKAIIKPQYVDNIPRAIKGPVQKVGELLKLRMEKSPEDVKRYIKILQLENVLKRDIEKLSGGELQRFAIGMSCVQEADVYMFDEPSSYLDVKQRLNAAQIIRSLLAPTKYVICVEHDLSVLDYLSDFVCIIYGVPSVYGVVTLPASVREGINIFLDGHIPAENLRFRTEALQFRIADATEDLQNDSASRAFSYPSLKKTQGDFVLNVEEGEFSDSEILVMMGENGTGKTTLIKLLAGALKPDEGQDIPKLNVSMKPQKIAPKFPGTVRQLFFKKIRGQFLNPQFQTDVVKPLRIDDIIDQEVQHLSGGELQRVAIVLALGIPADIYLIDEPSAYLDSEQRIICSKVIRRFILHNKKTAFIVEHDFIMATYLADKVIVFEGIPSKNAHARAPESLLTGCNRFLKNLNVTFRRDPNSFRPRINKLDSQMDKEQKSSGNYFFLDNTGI

Columns and labels:
Assay in all cases: co-IP; yeast lysates; GFP-Trap_A beads (GFP-tagged baits) or IgG-Sepharose (TAP-tagged baits), 3 h at 4°C, western blot; wild type and the strains sup45-2, rat8-2, rat7ΔN shifted to 37°C for 1 h; also 0.5 mg/ml cycloheximide for 30 min; also high copy RLI1
[1] = target: T1, uL29 as bait of the co-IP of Figure 6C (tag not told) (S. cerevisiae) (UniProt P0CX84)
T1 sequence: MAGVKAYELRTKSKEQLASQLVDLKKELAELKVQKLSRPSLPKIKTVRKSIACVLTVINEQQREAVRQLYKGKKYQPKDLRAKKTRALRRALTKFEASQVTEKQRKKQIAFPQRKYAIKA

eRF1-GFP (S. cerevisiae) = eRF1-GFP (S. cerevisiae) (UniProt P12385)
uS3-GFP (S. cerevisiae) = target: T2, uS3-GFP (S. cerevisiae) (UniProt P05750)
T2 sequence: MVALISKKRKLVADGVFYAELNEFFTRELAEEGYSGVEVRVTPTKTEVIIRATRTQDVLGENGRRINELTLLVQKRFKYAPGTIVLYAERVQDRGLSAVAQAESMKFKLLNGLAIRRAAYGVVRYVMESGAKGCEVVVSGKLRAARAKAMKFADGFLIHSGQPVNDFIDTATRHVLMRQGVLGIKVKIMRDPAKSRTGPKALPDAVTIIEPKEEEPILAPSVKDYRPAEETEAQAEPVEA

Rli1-GFP (S. cerevisiae) = Rli1-GFP (S. cerevisiae) (UniProt Q03195)
[2] = target: T3, Dbp5 as precipitated in the Dbp5 IPs (tag not told) (S. cerevisiae) (UniProt P20449)
T3 sequence: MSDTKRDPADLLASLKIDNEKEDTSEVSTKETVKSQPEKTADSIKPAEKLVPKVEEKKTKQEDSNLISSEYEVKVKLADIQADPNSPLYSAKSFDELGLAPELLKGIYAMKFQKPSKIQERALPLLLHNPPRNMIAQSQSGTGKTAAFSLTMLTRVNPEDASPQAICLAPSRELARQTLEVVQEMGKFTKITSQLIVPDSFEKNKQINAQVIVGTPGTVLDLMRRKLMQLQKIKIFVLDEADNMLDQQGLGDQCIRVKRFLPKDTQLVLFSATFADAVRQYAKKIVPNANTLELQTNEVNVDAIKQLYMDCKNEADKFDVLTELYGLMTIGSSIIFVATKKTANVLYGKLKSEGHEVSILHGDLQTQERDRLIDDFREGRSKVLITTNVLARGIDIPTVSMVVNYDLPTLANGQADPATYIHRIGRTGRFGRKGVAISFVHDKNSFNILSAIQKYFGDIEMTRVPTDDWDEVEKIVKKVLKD

[3] = target: Prt1-GFP (S. cerevisiae), P06103; conditions: remark: other sources report otherwise

B1: Asc1 (protein, UniProt P38011 1-319)
chain: MASNEVLVLRGTLEGHNGWVTSLATSAGQPNLLLSASRDKTLISWKLTGDDQKFGVPVRSFKGHSHIVQDCTLTADGAYALSASWDKTLRLWDVATGETYQRFVGHKSDVMSVDIDKKASMIISGSRDKTIKVWTIKGQCLATLLGHNDWVSQVRVVPNEKADDDSVTIISAGNDKMVKAWNLNQFQIEADFIGHNSNINTLTASPDGTLIASAGKDGEIMLWNLAAKKAMYTLSAQDEVFSLAFSPNRYWLAAATATGIKVFSLDPQYLVDDLRPEFAGYSKAAEPHAVSLAWSADGQTLFAGYTDNVIRVWQVMTAN
binding [1]: binds | binding (eRF1-GFP (S. cerevisiae)): binds | binding (uS3-GFP (S. cerevisiae)): binds

B3: Zwf1 (protein, UniProt P11412 1-505)
chain: MSEGPVKFEKNTVISVFGASGDLAKKKTFPALFGLFREGYLDPSTKIFGYARSKLSMEEDLKSRVLPHLKKPHGEADDSKVEQFFKMVSYISGNYDTDEGFDELRTQIEKFEKSANVDVPHRLFYLALPPSVFLTVAKQIKSRVYAENGITRVIVEKPFGHDLASARELQKNLGPLFKEEELYRIDHYLGKELVKNLLVLRFGNQFLNASWNRDNIQSVQISFKERFGTEGRGGYFDSIGIIRDVMQNHLLQIMTLLTMERPVSFDPESIRDEKVKVLKAVAPIDTDDVLLGQYGKSEDGSKPAYVDDDTVDKDSKCVTFAAMTFNIENERWEGVPIMMRAGKALNESKVEIRLQYKAVASGVFKDIPNNELVIRVQPDAAVYLKFNAKTPGLSNATQVTDLNLTYASRYQDFWIPEAYEVLIRDALLGDHSNFVRDDELDISWGIFTPLLKHIERPDGPTPEIYPYGSRGPKGLKEYMQKHKYVMPEKHPYAWPVTKPEDTKDN
binding (Rli1-GFP (S. cerevisiae)): no binding

B4: Hem15 (protein, UniProt P16622 32-393)
chain: NAQKRSPTGIVLMNMGGPSKVEETYDFLYQLFADNDLIPISAKYQKTIAKYIAKFRTPKIEKQYREIGGGSPIRKWSEYQATEVCKILDKTCPETAPHKPYVAFRYAKPLTAETYKQMLKDGVKKAVAFSQYPHFSYSTTGSSINELWRQIKALDSERSISWSVIDRWPTNEGLIKAFSENITKKLQEFPQPVRDKVVLLFSAHSLPMDVVNTGDAYPAEVAATVYNIMQKLKFKNPYRLVWQSQVGPKPWLGAQTAEIAEFLGPKVDGLMFIPIAFTSDHIETLHEIDLGVIGESEYKDKFKRCESLNGNQTFIEGMADLVKSHLQSNQLYSNQLPLDFALGKSNDPVKDLSLVFGNHEST
binding (Rli1-GFP (S. cerevisiae)): no binding

The remaining lines, values ahead:

binding (Rli1-GFP (S. cerevisiae)): binds | binding [2]: binds
B2: small ribosomal protein uS3 (yeast Rps3) (protein, UniProt P05750 1-240)
chain: T2 sequence

binding (Rli1-GFP (S. cerevisiae)): binds | binding [2]: binds
B5: large ribosomal protein uL29 (yeast Rpl35) (protein, UniProt P0CX84 1-120)
chain: T1 sequence

binding [3]: binds
B6: eukaryotic release factor 1 (eRF1), P12385 1-437 (protein)
chain: MDNEVEKNIEIWKVKKLVQSLEKARGNGTSMISLVIPPKGQIPLYQKMLTDEYGTASNIKSRVNRLSVLSAITSTQQKLKLYNTLPKNGLVLYCGDIITEDGKEKKVTFDIEPYKPINTSLYLCDNKFHTEVLSELLQADDKFGFIVMDGQGTLFGSVSGNTRTVLHKFTVDLPKKHGRGGQSALRFARLREEKRHNYVRKVAEVAVQNFITNDKVNVKGLILAGSADFKTDLAKSELFDPRLACKVISIVDVSYGGENGFNQAIELSAEALANVKYVQEKKLLEAYFDEISQDTGKFCYGIDDTLKALDLGAVEKLIVFENLETIRYTFKDAEDNEVIKFAEPEAKDKSFAIDKATGQEMDVVSEEPLIEWLAANYKNFGATLEFITDKSSEGAQFVTGFGGIGAMLRYKVNFEQLVDESEDEYYDEDEGSDYDFI
